Laboratory results from PubChem BioAssay AID504332 (National Center for Advancing Translational Sciences (NCATS), 2011).
Values joined by “and” are separate entries in the source; they are usually repeats but may differ in a detail not shown here. Equal values may be shown once. Screen size: about 350,000 compounds; about 31,000 (8.9%) were called active. This list was built around the results that the source calls inconclusive (neither active nor inactive); the mix of calls is not that of the screen. Calls come from the whole dose curve; as a rule, active = well fitted inhibition curve with a large enough effect; inconclusive = small, poorly fitted or top-dose-only effect; inactive = no such curve, though single readings can be large or run the other way. A potency beside an inconclusive call is a rough fit, not a confirmed value. A structure can be active in one record and inactive in another.

Target: Histone-lysine N-methyltransferase EHMT2 (Homo sapiens) (UniProt Q96KQ7)
Assay: qHTS Assay for Inhibitors of Histone Lysine Methyltransferase G9a; note: nearly all actives have a fitted effect of over 75% in size
Settings: G9a H3K9 monomethylation, AlphaScreen, 2 h; activity, negative = inhibition: at 59 µM (top of the series) unless noted
Method in brief: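 Step 1: enzyme (final 20 nM) with compound, 15 min RT. Step 2: substrate peptide 500 nM and SAM 20 uM, 2 h RT. Step 3: anti-H3K9me1 antibody and AlphaScreen beads, 10 min, then plate read.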
% is set by controls: 0 for no effect and ±100 for the full control effect; potency is the fitted concentration of half-maximal effect; tags give direction and shape of the fitted curve.

Chain of UniProt Q96KQ7 (Q96KQ7 whole entry, looked up): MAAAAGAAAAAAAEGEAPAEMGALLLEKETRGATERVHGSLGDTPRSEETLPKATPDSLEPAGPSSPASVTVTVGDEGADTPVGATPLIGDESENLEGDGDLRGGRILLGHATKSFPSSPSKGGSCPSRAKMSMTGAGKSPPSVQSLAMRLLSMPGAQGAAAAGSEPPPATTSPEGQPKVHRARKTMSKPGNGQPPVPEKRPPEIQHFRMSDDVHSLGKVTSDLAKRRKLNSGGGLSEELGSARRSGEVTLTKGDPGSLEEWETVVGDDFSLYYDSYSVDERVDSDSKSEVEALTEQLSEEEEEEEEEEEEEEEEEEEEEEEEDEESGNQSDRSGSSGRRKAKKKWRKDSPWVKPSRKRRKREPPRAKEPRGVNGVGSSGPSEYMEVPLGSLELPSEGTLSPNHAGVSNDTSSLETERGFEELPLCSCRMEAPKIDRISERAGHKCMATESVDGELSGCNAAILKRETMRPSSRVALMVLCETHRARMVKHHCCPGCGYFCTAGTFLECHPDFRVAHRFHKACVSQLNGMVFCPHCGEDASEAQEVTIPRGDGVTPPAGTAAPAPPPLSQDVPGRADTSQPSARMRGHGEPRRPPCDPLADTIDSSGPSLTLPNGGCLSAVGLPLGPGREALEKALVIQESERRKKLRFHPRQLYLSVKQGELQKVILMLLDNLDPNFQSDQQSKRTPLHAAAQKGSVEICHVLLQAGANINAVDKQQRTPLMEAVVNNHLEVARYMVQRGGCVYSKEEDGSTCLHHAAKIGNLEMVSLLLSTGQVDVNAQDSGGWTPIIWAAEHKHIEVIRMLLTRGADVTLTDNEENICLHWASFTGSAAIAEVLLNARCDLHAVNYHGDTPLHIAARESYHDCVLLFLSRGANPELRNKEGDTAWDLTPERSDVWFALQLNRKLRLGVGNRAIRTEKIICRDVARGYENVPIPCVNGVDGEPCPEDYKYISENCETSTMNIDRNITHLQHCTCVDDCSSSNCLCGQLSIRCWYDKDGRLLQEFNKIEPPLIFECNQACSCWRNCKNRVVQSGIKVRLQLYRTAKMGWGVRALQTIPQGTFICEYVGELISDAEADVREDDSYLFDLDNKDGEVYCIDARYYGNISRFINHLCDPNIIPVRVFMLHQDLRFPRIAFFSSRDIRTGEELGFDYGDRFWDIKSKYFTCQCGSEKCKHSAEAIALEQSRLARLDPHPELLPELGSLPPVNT

Structure (SMILES) | Potency | activity, negative = inhibition
C/C(CC(=O)Nc1ccc(C)c(Cl)c1)=N\NC(=O)c1ccco1 | inconclusive: 89.1 µM [inhibitor, single point] | 
CCOc1ccc(C2C(C#N)=C(N)SC(N)=C2C#N)cc1OC | active: 8.91 µM | 
CN(C)c1ccc(CNC(=O)C2CCN(S(=O)(=O)c3ccc4c(c3)oc(=O)n4C)CC2)cc1 | inconclusive: 0.447 µM [inhibitor, partial curve, poor fit] | 
O=C(c1ccc2[nH]c(=O)c(=O)[nH]c2c1)N1CCN(Cc2ccccc2)CC1 | inconclusive: 89.1 µM [inhibitor, single point] | 
Cc1ccc2nc(SCC(=O)Nc3cc(C)on3)nc(=O)n2c1 |  | inactive: 1.3% [at 102 µM]
Cc1nc(C)c(/C(O)=C/c2nc3ccc([N+](=O)[O-])cc3oc2=O)o1 | active: 35.5 µM | 
COC(=O)Cc1cc(=O)n(-c2nc3ccccc3s2)[nH]1 | inconclusive: 25.1 µM [inhibitor, single point] | 
O=C(NCc1ccc(C(F)(F)F)cc1)C12CN(Cc3ccccc3)CC1C(c1cccc([N+](=O)[O-])c1)=NO2 (stereo not drawn) |  | inconclusive: -61.3% [inhibitor]
CCOC(=O)C1=C(O)C(=O)N(Cc2ccccc2)C1 | inconclusive: 89.1 µM [inhibitor, single point] | 
CCN1CCN(c2nc3sc4c(c3c(=O)n2-c2ccc(OC)cc2)CCCCC4)CC1 |  | inconclusive: -61.2% [inhibitor]
CCN(CC)S(=O)(=O)c1ccc(-c2csc(=Nc3cccc(C(F)(F)F)c3)n2Cc2ccc3c(c2)OCO3)cc1 | inconclusive: 10 µM [inhibitor, partial curve] | 
CCc1ccc(CNC(=O)Cn2nc(-c3ccc(Cl)cc3)ccc2=O)cc1 |  | inactive: 5.93%
COc1ccc(C2c3c(n(C)c4ccccc34)C(=O)N2CC(=O)Nc2ccc(C)cc2Cl)cc1 (stereo not drawn) | inconclusive: 3.16 µM [inhibitor, partial curve, poor fit] | 
COc1cc(OC)cc(-c2nc3ccccc3c(=O)n2OC(=O)c2ccc(Br)cc2)c1 | inconclusive: 28.2 µM [inhibitor, single point] | 
COc1ccc(N2CC(C)Cn3c2nc2c3c(=O)n(Cc3ccccc3F)c(=O)n2C)c(OC)c1 (stereo not drawn) | inconclusive: 1.12 µM [inhibitor, partial curve, poor fit] | 
N#CC(C#N)=C1C(=O)N(CCN2CCOCC2)c2ccccc21 | inconclusive: 50.1 µM [inhibitor, partial curve] | 
Nc1c(C(=O)c2ccc(Cl)cc2)sc2nc3c(cc12)CCC3 |  | inactive: 13.5%
CSc1ccccc1NC(=O)c1cccc(S(=O)(=O)N2CCN(C)CC2)c1 |  | inactive: 67.6% [at 102 µM]
CN(C)c1ccc(/C=C2\SC(N3CCCCC3)=NC2=O)cc1 | inconclusive: 89.1 µM [inhibitor, single point] | 
CCc1cccc(NC(=O)Cc2ccc(OC)c(OC)c2)c1 |  | inactive: -6.49%
CCc1ccc(-c2cc(C)no2)cc1S(=O)(=O)NCc1ccco1 | inactive and active: 70.8 µM | 
O=C(CCN1CCOCC1)Nc1c(-c2ccccc2)c2cc(Br)ccc2[nH]c1=O | inconclusive: 89.1 µM [inhibitor, single point] | 
CCC(Oc1ccc(F)cc1)C(=O)Nc1nc2c(s1)CCCC2 (stereo not drawn) |  | inactive: -17.3%

Structure (SMILES) | Potency | activity, negative = inhibition
O=C(OCC(=O)N1CCN(C(=O)c2ccco2)CC1)c1cncc(Br)c1 | inconclusive: 39.8 µM [inhibitor, single point] | 
OC(C#CCN1CCOCC1)(c1ccccc1)C1CC1 (stereo not drawn) | active: 44.7 µM | 
O=C(Nc1ccc(F)cc1)c1oc2ccccc2c1NC(=O)C1CCCCC1 |  | inactive: -32.8%
COc1cccc(-n2c(SCc3ccccn3)nc3c(c2=O)SCC3)c1 | inconclusive: 89.1 µM [inhibitor, single point] | 
Cc1cccc(/C=N/n2c(COc3ccccc3)n[nH]c2=S)c1 | active: 3.16 µM | 
C=C(C)Cn1c(N2CCN(CC)CC2)nc2c1c(=O)[nH]c(=O)n2C | inconclusive: 89.1 µM [inhibitor, single point] | 
CC(=O)/C(=N/Nc1cccc(C)c1)N1CCOCC1 | active: 0.631 µM | 
N#C/C(=C\c1cn(CC(=O)O)c2ccccc12)C(=O)NCc1ccccc1 | active: 44.7 µM | 
Clc1cccc(-c2nn3c(-c4cccc(Cl)c4)nnc3s2)c1 | inconclusive: 89.1 µM [inhibitor, single point] | 
O=C(c1ccc2c(c1)OCO2)C1CCCN(Cc2cc(F)ccc2-n2cccn2)C1 (stereo not drawn) | inconclusive: 2.82 µM [inhibitor, full curve] | 
CCC(C(=O)OCC(=O)N(CC)c1c(N)n(Cc2ccccc2)c(=O)[nH]c1=O)c1ccccc1 (stereo not drawn) |  | inactive: 14.3% [at 12.7 µM]
CCCSC1=N/C(=C\C=C\c2ccco2)C(=O)S1 | active: 14.1 µM | 
COc1cc(OC)cc(C(=O)Nc2ccc(S(=O)(=O)Nc3ccccn3)cc2)c1 | inconclusive: 0.141 µM [inhibitor, full curve, poor fit] | 
CC(=O)n1cc([C@@H]2C=C(C(=O)N3CCN(Cc4ccc5c(c4)OCO5)CC3)O[C@H](OCc3ccc(CO)cc3)C2)c2ccccc21 |  | inconclusive: -53.8% [inhibitor]
CC(=O)c1cccc(NC(=S)Nc2ccc(F)cc2)c1 | active: 50.1 µM | 
COCC(C)NCc1cccc(OC)c1OC (stereo not drawn) | active: 17.8 µM | 
NCCCC[C@@H]1NC(=O)[C@H](CCC(=O)O)NC(=O)c2cc([N+](=O)[O-])cc(I)c2NCC[C@@H](C(N)=O)NC1=O | active: 14.1 µM | 
Oc1oc(-c2ccccc2)nc1/C=N/c1ccccn1 | inconclusive: 15.8 µM [inhibitor, partial curve, poor fit] | 
C[n+]1ccc(/C=C/c2c[nH]c3ccccc23)cc1 | inconclusive: 7.94 µM [inhibitor, partial curve, poor fit] | 
Cc1cc(C)nc(NS(=O)(=O)c2ccc(NC(=O)c3cc(=O)c4ccc(C)c(C)c4o3)cc2)n1 | inconclusive: 14.1 µM [inhibitor, partial curve, poor fit] | 
O=C(O)CNC(=O)C12CC3CC(CC(Cl)(C3)C1)C2 | inconclusive: 39.8 µM [inhibitor, partial curve, poor fit] | 
Cc1cccc(C(=O)Nc2ccc(C(=O)/C=C/c3ccncc3)cc2)c1 | inconclusive: 79.4 µM [inhibitor, single point] | 
Nc1c(C(=O)Nc2cccc(F)c2)sc2nc(-c3cccs3)ccc12 |  | inactive: -1.03%

Structure (SMILES) | Potency | activity, negative = inhibition
OCC1(Cc2ccc(Cl)cc2)CCN(Cc2ccc(F)c(F)c2)CC1 |  | inactive: -9.55% [at 102 µM]
CCN1CCN(CCCNC(=O)C2c3ccccc3C(=O)N(C)C2c2ccc(OC)cc2)CC1 (stereo not drawn) | inconclusive: 39.8 µM [inhibitor, single point] | 
CC(C)N(Cc1cn[nH]c1-c1ccc(-c2ccccc2)cc1)Cc1nccn1C | inconclusive: 31.6 µM [inhibitor, partial curve] | 
Cc1cccc(Nc2ccc([N+](=O)[O-])cc2C(=O)O)c1 | active: 1.41 µM | 
COc1ccc(NC(=O)c2c(OC)cccc2OC)c(OC)c1 | inconclusive: 1.78 µM [inhibitor, partial curve, poor fit] | 
CC(=O)Oc1ccc2c(c1)OC(c1ccccc1)CC21CC(C)(C)NC(=S)N1 (stereo not drawn) | inconclusive: 50.1 µM [inhibitor, partial curve] | 
COc1cc(NS(=O)(=O)c2ccc3[nH]c4c(c3c2)CCCC4)cc(OC)c1OC | inconclusive: 7.94 µM [inhibitor, partial curve, poor fit] | 
COc1cc(CN2CCc3ccccc3C2)cc([N+](=O)[O-])c1O | active: 8.91 µM | 
Cc1ccc(/C=N\NC(=O)Cc2cccn2C)o1 | active: 28.2 µM | 
COc1ccc(CN2CCN(c3ncccn3)CC2)c(OC)c1 | inconclusive: 35.5 µM [inhibitor, single point] | 
O=C(NCc1ccncc1)C(=O)NCC1OCCN1S(=O)(=O)c1ccc(F)cc1 (stereo not drawn) | inconclusive: 89.1 µM [inhibitor, partial curve, poor fit] | 
COCCNC(=S)N(CCc1c(C)[nH]c2ccc(F)cc12)Cc1ccco1 | inconclusive: 70.8 µM [inhibitor, single point] | 
O=C(Nc1nc(-c2ccc(Cl)s2)cs1)c1ccncc1 | inconclusive: 35.5 µM [inhibitor, partial curve, poor fit] | 
Cc1ccc(C(=O)N2CCN(c3ccc(NC(=S)NC(=O)c4cccs4)cc3)CC2)cc1 | inconclusive: 4.47 µM [inhibitor, full curve] | 
Cn1cnc(S(=O)(=O)Nc2cc(-c3ccc(Cl)cc3)nn2C)c1 | active: 50.1 µM | 
Cc1nc(CS(=O)(=O)c2ccccc2)cc(Sc2ccc(Cl)cc2Cl)n1 |  | inactive: 36%
CCOC(=O)C1Sc2[nH]c(=O)sc2C(c2ccc(Cl)cc2)C1C(=O)OCC (stereo not drawn) | inconclusive: 7.94 µM [inhibitor, single point] | 
Cc1ccc(Nc2c(-c3ccc(N4CCOCC4)cc3)nc3c(C)cccn23)cc1 | inconclusive: 3.16 µM [inhibitor, single point] | 
Cc1ccc(S(=O)(=O)c2cc3cc(Br)ccc3oc2=O)cc1 | inconclusive: 5.01 µM [inhibitor, full curve, poor fit] | 
O=S(=O)(Nc1cccnc1)c1cccs1 | inconclusive: 63.1 µM [inhibitor, partial curve, poor fit] | 
CCOC(=O)C1CCCN(c2c(C(=O)c3ccc(C)cc3)cnc3ccc(OCC)cc23)C1 (stereo not drawn) | active: 1.41 µM | 
Cc1cc(C)c(NC(=O)CSc2ccc(-c3cccnc3)nn2)c(C)c1 |  | inactive: 24.8% [at 102 µM]
